Article PMC7177903
Results are given in words; binding and its absence hold for the method and conditions named. Binding seen in cells or lysates may run through a third protein. Some binding calls cover weakened binding; strength is not graded here. Sequences can lack the tags named with a protein.

Sequences of proteins named here, by UniProt entry; tags and fusion partners are left off. A change or cut given only in a name is not applied to a line headed by its entry. Residues count along the entry.
UniProt O00327: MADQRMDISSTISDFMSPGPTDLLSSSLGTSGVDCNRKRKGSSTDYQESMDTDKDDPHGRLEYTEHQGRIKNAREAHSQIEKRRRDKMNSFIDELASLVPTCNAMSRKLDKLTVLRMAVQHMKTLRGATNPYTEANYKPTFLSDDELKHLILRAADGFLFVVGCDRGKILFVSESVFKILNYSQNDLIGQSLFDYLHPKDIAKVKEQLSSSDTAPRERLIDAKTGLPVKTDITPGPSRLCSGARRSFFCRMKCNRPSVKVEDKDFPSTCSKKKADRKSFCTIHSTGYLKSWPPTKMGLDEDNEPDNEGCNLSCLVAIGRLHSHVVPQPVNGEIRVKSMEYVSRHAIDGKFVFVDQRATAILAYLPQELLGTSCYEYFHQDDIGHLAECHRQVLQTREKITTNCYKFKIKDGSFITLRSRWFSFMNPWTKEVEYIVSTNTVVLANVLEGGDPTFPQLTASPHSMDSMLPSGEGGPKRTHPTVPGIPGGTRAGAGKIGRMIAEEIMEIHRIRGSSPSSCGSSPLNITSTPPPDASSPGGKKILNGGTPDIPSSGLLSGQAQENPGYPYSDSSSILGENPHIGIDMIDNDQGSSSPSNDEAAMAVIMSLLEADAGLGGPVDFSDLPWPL
5Myc-6His-hBMAL1-N (BMAL1 1-490): residues 1-490 of O00327
5Myc-6His-hBMAL1-C longer version (BMAL1 490-626): residues 490-626 of O00327

What was measured:
Assay in all cases: co-IP; HEK-293T cells co-transfected with 5Myc-6His-BMAL1 constructs and CHR-cpVenus constructs; lysed in IP buffer (10 mM Tris pH 7.5, 150 mM NaCl, 1 mM EDTA, 1% Triton X-100, 0.1% sodium deoxycholate); immunoprecipitated with mouse anti-Myc antibodies, detected with anti-GFP antibodies
[1] = molecular target: 5Myc-6His-hBMAL1 (full-length BMAL1 with a 5Myc-6His tag on the N-terminus) (human) (UniProt O00327)
[2] = molecular target: L606A and L607A double mutant 5Myc-6His-hBMAL1 (human) (UniProt O00327)
[3] = molecular target: 5Myc-6His-hBMAL1-C longer version (BMAL1 490-626) (human) (UniProt O00327)
[4] = molecular target: 5Myc-6His-hBMAL1-N (BMAL1 1-490) (human) (UniProt O00327)

Row | binding [1] | Binder | also measured
1 | no binding | CHRH-cpVenus (helical domain of CHRONO, 111-196) (domain or fragment, UniProt Q8N365 111-196) CTTEGDLLFAQKCKELQGFIPPLTDLLNGLKMGRFERGLSSFQQSVAMDRIQRIVGVLQKPQMGERYLGTLLQVEGMLKTWFPQIA | –
2 | binds | CHR-cpVenus (full-length CHRONO fused to cpVenus on the C-terminus) (protein, UniProt Q8N365 1-385) MDSPSSVSSYSSYSLSSSFPTSPVNSDFGFPSDSEREDKGAHGPRPDTVGQRGGSRPSPGPIRCRHRSKVSGNQHTPSHPKQRGSASPMAGSGAKRSRDGELETSLNTQGCTTEGDLLFAQKCKELQGFIPPLTDLLNGLKMGRFERGLSSFQQSVAMDRIQRIVGVLQKPQMGERYLGTLLQVEGMLKTWFPQIAAQKSSLGGGKHQLTKHFPSHHSDSAASSPASPMEKMDQTQLGHLALKPKQPWHLTQWPAMNLTWIHTTPICNPPLSSPGTISFSHGPLGTGTGIGVILFLQHGVQPFTHSAPTTPVPPTTASPVIPGEPMKLSGEGPRCYSLPVTLPSDWSYTLSPPSLPTLARKMTIGHREQQRSHPPVAADAHLLNL | binding [2]: no binding; binding [3]: binds; binding [4]: no binding
3 | no binding | CHRC-cpVenus (C-terminal domain of CHRONO, 197-385) (domain or fragment, UniProt Q8N365 197-385) AQKSSLGGGKHQLTKHFPSHHSDSAASSPASPMEKMDQTQLGHLALKPKQPWHLTQWPAMNLTWIHTTPICNPPLSSPGTISFSHGPLGTGTGIGVILFLQHGVQPFTHSAPTTPVPPTTASPVIPGEPMKLSGEGPRCYSLPVTLPSDWSYTLSPPSLPTLARKMTIGHREQQRSHPPVAADAHLLNL | –
4 | no binding | CHRH2-cpVenus (CHRONO 111-262) (domain or fragment, UniProt Q8N365 111-262) CTTEGDLLFAQKCKELQGFIPPLTDLLNGLKMGRFERGLSSFQQSVAMDRIQRIVGVLQKPQMGERYLGTLLQVEGMLKTWFPQIAAQKSSLGGGKHQLTKHFPSHHSDSAASSPASPMEKMDQTQLGHLALKPKQPWHLTQWPAMNLTWIH | –
5 | binds | CHRHC-cpVenus (helix region plus C-terminus of CHRONO, 111-385) (domain or fragment, UniProt Q8N365 111-385) CTTEGDLLFAQKCKELQGFIPPLTDLLNGLKMGRFERGLSSFQQSVAMDRIQRIVGVLQKPQMGERYLGTLLQVEGMLKTWFPQIAAQKSSLGGGKHQLTKHFPSHHSDSAASSPASPMEKMDQTQLGHLALKPKQPWHLTQWPAMNLTWIHTTPICNPPLSSPGTISFSHGPLGTGTGIGVILFLQHGVQPFTHSAPTTPVPPTTASPVIPGEPMKLSGEGPRCYSLPVTLPSDWSYTLSPPSLPTLARKMTIGHREQQRSHPPVAADAHLLNL | –
6 | binds | CHRH4-cpVenus (CHRONO 111-298) (domain or fragment, UniProt Q8N365 111-298) CTTEGDLLFAQKCKELQGFIPPLTDLLNGLKMGRFERGLSSFQQSVAMDRIQRIVGVLQKPQMGERYLGTLLQVEGMLKTWFPQIAAQKSSLGGGKHQLTKHFPSHHSDSAASSPASPMEKMDQTQLGHLALKPKQPWHLTQWPAMNLTWIHTTPICNPPLSSPGTISFSHGPLGTGTGIGVILFLQH | –
7 | no binding | CHRN-cpVenus (N-terminal domain of CHRONO, 1-110) (domain or fragment, UniProt Q8N365 1-110) MDSPSSVSSYSSYSLSSSFPTSPVNSDFGFPSDSEREDKGAHGPRPDTVGQRGGSRPSPGPIRCRHRSKVSGNQHTPSHPKQRGSASPMAGSGAKRSRDGELETSLNTQG | –
8 | binds | CHRH3-cpVenus (CHRONO 111-264) (domain or fragment, UniProt Q8N365 111-264) CTTEGDLLFAQKCKELQGFIPPLTDLLNGLKMGRFERGLSSFQQSVAMDRIQRIVGVLQKPQMGERYLGTLLQVEGMLKTWFPQIAAQKSSLGGGKHQLTKHFPSHHSDSAASSPASPMEKMDQTQLGHLALKPKQPWHLTQWPAMNLTWIHTT | –
